Source: PubChem BioAssay AID360 (National Center for Advancing Translational Sciences (NCATS), 2006)
Among all 48,000 compounds or so, about 550 (1.1%) were called active. About 4% were inconclusive and are not listed. Cut-off read from the data, not from the text of the source: active = potency below about 15 µM; inconclusive = mostly about 16 µM to 33 µM; inactive = weaker than that. This is one part of the list.

These molecules were tested against Lysosomal acid glucosylceramidase (Homo sapiens) (UniProt P04062) (assay: Glucocerebrosidase). Conditions: purified enzyme, resorufin glucoside fluorescence (screen aimed at inhibitors), 20 min.
Summary of the method: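 Wild-type enzyme at 0.2 nM final in 50mM citric acid/KH2PO4, 10mM sodium taurocholate, 0.01% tween-20, pH 5.9, with resorufin beta-D-glucopyranoside at 30 uM final. Compounds titrated, 20 min at RT, red fluorescence read; AC50 from titration.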
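Note: the screen sought inhibitors.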
Potency is the fitted concentration of half-maximal effect.

UniProt P04062, sequence (P04062 whole entry, looked up): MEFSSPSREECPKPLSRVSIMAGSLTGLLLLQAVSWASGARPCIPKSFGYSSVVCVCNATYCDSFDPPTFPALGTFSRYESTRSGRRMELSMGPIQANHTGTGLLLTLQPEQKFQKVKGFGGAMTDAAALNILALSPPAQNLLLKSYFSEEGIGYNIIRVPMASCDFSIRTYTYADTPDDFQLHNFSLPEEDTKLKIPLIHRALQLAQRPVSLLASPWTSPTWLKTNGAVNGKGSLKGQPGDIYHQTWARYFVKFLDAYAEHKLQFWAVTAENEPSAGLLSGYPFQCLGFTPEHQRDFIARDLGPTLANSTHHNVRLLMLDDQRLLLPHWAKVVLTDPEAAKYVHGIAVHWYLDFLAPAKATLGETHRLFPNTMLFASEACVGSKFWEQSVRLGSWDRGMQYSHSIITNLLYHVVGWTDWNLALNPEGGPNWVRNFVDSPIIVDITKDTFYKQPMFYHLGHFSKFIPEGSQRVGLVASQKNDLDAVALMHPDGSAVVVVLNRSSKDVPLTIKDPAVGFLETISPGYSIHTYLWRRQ

Potency, inactive:
c1ccc(OCCCCn2cnc3ccccc32)cc1 > 76.9 µM
Cc1cccc(OCC(O)Cn2c(-n3nc(C)cc3C)nc3c2c(=O)[nH]c(=O)n3C)c1 (stereo unspecified) > 76.9 µM
CCOC(=O)C(NC(C)=O)(OCc1ccc(F)cc1)C(F)(F)F (stereo unspecified) > 76.9 µM
CCc1c(C)nc(Nc2nc(C)c3cc(OC)ccc3n2)[nH]c1=O > 76.9 µM
COC(=O)c1ccc2c(c1)nc(C)n2CCO > 76.9 µM
CC(C)C(=O)N1CCN(c2ccccc2NC(=O)Cc2ccc(Cl)cc2)CC1 > 76.9 µM
CC(=O)c1ccc(NC2OC(C)C(O)C(O)C2O)cc1 (stereo unspecified) > 76.9 µM
CC(=O)c1cccc(N(CC(=O)N2CCCC2)S(C)(=O)=O)c1 > 76.9 µM
CCOC(=O)CNc1nc(OCC#N)nc(N2CCOCC2)n1 > 76.9 µM
CC(=O)Nn1c(COc2ccccc2C)nc2ccccc2c1=O > 76.9 µM
CCCCCc1nc2ccccc2c(=O)n1N > 76.9 µM
CC(=O)Nc1c(O)nc(SCC(=O)N2CCN(c3ccc(F)cc3)CC2)[nH]c1=O > 76.9 µM
O=C(CN(C(=O)CNS(=O)(=O)c1ccccc1)C1CCCC1)NCC1CCCO1 (stereo unspecified) > 76.9 µM
Cc1cccc2cc(COC(=O)C(C)C)c(=O)[nH]c12 > 76.9 µM
COc1ccc(-c2nnc(Nc3nc4c(OC)cccc4s3)o2)c(OC)c1 > 76.9 µM
CC1(C)CC(=O)C2=C(C1)Oc1ncn(CCCn3ccnc3)c(=N)c1C2c1ccccc1 (stereo unspecified) > 76.9 µM
O=c1c2ccccc2ncn1Cc1nc2ccccc2s1 > 76.9 µM
CCCCCn1c(SCCCC)nc2c1c(=O)[nH]c(=O)n2C > 76.9 µM
COc1ccc(NC(=O)Nc2nnc(C(C)C)s2)cc1 > 76.9 µM
Cc1ccc(-n2nc3c(c2NC(=O)c2ccc4c(c2)OCO4)CS(=O)C3)cc1 (stereo unspecified) > 76.9 µM
COC(=O)c1sc(NC(=O)Cc2cccs2)nc1C > 76.9 µM
COc1ccc(Cl)cc1CSc1n[nH]c(C)n1 > 76.9 µM
Cc1c(NC(=O)CCC2CCCCC2)c(=O)n(-c2ccccc2)n1C > 76.9 µM
C1CCc2c(nnc3c2-c2nonc2CC3)C1 > 76.9 µM
COC(=O)c1nnn(CC(=O)Nc2ccc(C)c(F)c2)c1C(=O)OC > 76.9 µM
CCCC(=O)N1CC2(CCC)CN(C(=O)CCC)CC(CCC)(C1)C2=O > 76.9 µM
CCOC(=O)c1ccc(NC(=O)Nc2cc(C)on2)cc1
O=C(c1ccccc1F)N1CCC(O)(c2cccnc2)CC1 > 76.9 µM
Cc1occc1C(=O)NC1CCCc2ccccc21 (stereo unspecified) > 76.9 µM
CC12CC(NC(=O)N1c1cccc(C(=O)N3CCN(c4ccccn4)CC3)c1)c1ccccc1O2 (stereo unspecified) > 76.9 µM
COc1ccc(C(c2nnnn2Cc2ccccc2)N2CCN(c3ccccc3)CC2)cc1 (stereo unspecified) > 76.9 µM
COc1ccccc1N(CCC#N)C(=O)CSc1nc(-c2ccccc2)cn1N > 76.9 µM
CN1C(=O)CC(n2c(CO)nc3ccccc32)C1=O (stereo unspecified) > 76.9 µM
O=C1CC(N(O)c2ccccc2)C(=O)N1c1cc(Cl)cc(Cl)c1 (stereo unspecified) > 76.9 µM
O=C(Nc1nc2cc3c(cc2s1)OCCO3)c1cccc(S(=O)(=O)N2CCOCC2)c1 > 76.9 µM
CC(C)(C)n1nc2c(c1NC(=O)c1ccco1)CS(=O)C2 (stereo unspecified) > 76.9 µM
Cc1cc(C)c2cc(CN(CCO)C(c3nnnn3Cc3ccc(F)cc3)C(C)C)c(=O)[nH]c2c1 (stereo unspecified) > 76.9 µM
COc1ccccc1-n1c(SCC(N)=O)nnc1-c1ccc(S(=O)(=O)N2CCCCC2)cc1 > 76.9 µM
COc1ccc(CCNC(=O)Cn2nnc(-c3cccs3)n2)cc1OC > 76.9 µM
O=C(Nc1ccc(Cl)cc1)N1CCCC1 > 76.9 µM
NC(=O)CSC1=Nc2ccccc2C2=NC(CCC(=O)NCc3ccc(F)cc3)C(=O)N12 (stereo unspecified) > 76.9 µM
COc1cc(C2=NOC(C(=O)NCc3ccco3)C2)cc(OC)c1OC (stereo unspecified) > 76.9 µM
CC(C(=O)Nc1cccnc1)N1C(=O)c2ccccc2C1=O (stereo unspecified) > 76.9 µM
C=CCn1c(N)c(C(=O)NCC2CCCO2)c2nc3ccccc3nc21 (stereo unspecified) > 76.9 µM
CCS(=O)(=O)N1Cc2ccccc2CC1C(=O)N1CCN(c2ccccc2)CC1 (stereo unspecified) > 76.9 µM
C=CCN1C(=O)/C(=C2/Sc3ccccc3N2C)SC1=Nc1c(C)n[nH]c1C > 76.9 µM
O=C(COC(=O)Cc1ccsc1)NC1CCCCCC1 > 76.9 µM
COc1ccc(N2C(=O)CCC(C(=O)N3CCCCCC3)C2c2ccc(OC)c(OC)c2)cc1 (stereo unspecified) > 76.9 µM
CCOC(=O)c1cccnc1SCc1cc(=O)n2ccccc2n1 > 76.9 µM
O=C(NCc1cccs1)C1CC(=O)N(c2ccccc2)C1 (stereo unspecified) > 76.9 µM
CC1(C)CC(=O)c2cnc(NCC3CCCO3)nc2C1 (stereo unspecified) > 76.9 µM
Cc1cc(NC(=O)c2cccc(S(=O)(=O)N3CCOCC3)c2)c2ccccc2n1 > 76.9 µM
CC(=O)N1CCc2cc(S(=O)(=O)CCC(=O)Nc3c(C)n(C)n(-c4ccccc4)c3=O)ccc21 > 76.9 µM
Cc1oc2nc(SCC(=O)NCc3cccnc3)nc(N)c2c1C > 76.9 µM
CCCn1c(SCC(=O)Nc2nonc2C)nnc1-c1ccoc1C > 76.9 µM
COc1ccc(C(c2nnnn2Cc2cccs2)N2CCN(c3ccccc3F)CC2)cc1OC (stereo unspecified) > 76.9 µM
COCC(C)n1c(C)cc(C(=O)COC(=O)c2ccc3ncsc3c2)c1C (stereo unspecified) > 76.9 µM
CC(=O)N1c2c(cc(Br)cc2S(=O)(=O)NCc2ccc3c(c2)OCO3)CC1C (stereo unspecified) > 76.9 µM
O=C(CN1CCOCCOCCN(CC(=O)Nc2ccccc2)CCOCC1)Nc1ccccc1 > 76.9 µM
N#CC(C(N)=O)=C1CCC2(CC1)OCCCCO2 > 76.9 µM
N#Cc1nc(-c2cccc3ccccc23)oc1N1CCCCC1 > 76.9 µM
c1csc(-c2nn3c(Cn4nnc5ccccc54)nnc3s2)c1 > 76.9 µM
CCCN(CC1CC1)C(=O)Nc1ccccc1C > 76.9 µM
COc1ccc(C2(C(=O)NCC3CCCO3)CCOCC2)cc1 (stereo unspecified) > 76.9 µM
CC(C)(C)NCC1(CO)SC(N)=NC1=O (stereo unspecified) > 76.9 µM
O=C(COC(=O)c1ccccc1)NCc1ccco1 > 76.9 µM
CCn1c(C(O)c2cccc(OC)c2OC)nc2ccccc21 (stereo unspecified) > 76.9 µM
CC(=O)NC1C(=O)N=C(SCC(=O)NCc2ccccc2)NC1=O (stereo unspecified) > 76.9 µM
Cc1cc(C)cc(NC(=O)Cn2ncn3c(cc4ccccc43)c2=O)c1 > 76.9 µM
CCc1cccc(C)c1NC(=O)C1=C(C(=O)O)CCCC1 > 76.9 µM
CCOC(=O)CSc1nnc(CNC(=O)c2ccco2)n1-c1ccc(F)cc1 > 76.9 µM
O=C(CC1CCCCC1)Nc1c2c(nn1-c1ccc(F)cc1)CS(=O)(=O)C2 > 76.9 µM
CC1Cc2ccccc2N1C(=O)CSc1ncccc1C(=O)O (stereo unspecified) > 76.9 µM
COc1ccc(C(=O)Nn2cc3c(c2-c2ccccc2)c(=O)n(C)c(=O)n3C)cc1 > 76.9 µM
CCN(CC)c1ccc2c(C)c(CN3CCOCC3)c(=O)oc2c1 > 76.9 µM
CC(C)(C)OC(=O)N1CCC[C@@H]1C(=O)N1CCC(C(=O)O)CC1 > 76.9 µM
O=C(O)c1ccc(CS(=O)c2cccc(C(F)(F)F)c2)o1 (stereo unspecified) > 76.9 µM
O=C(c1cc(-c2ccco2)on1)N1CCc2ccccc2C1 > 76.9 µM
COC(=O)c1ccc(CSc2nc3ccccc3c(=O)n2Cc2ccco2)o1 > 76.9 µM
Cn1c(=O)[nH]c(=O)c2c1nc(NCc1ccco1)n2CCCc1ccccc1 > 76.9 µM
CCN1C(=O)CC(N2CCN(C(c3ccccc3)c3ccccc3)CC2)C1=O (stereo unspecified) > 76.9 µM
COc1cc(S(=O)(=O)Nc2ccccc2C)ccc1Cl > 76.9 µM
c1ccc2[nH]c(CN3CCCCCC3)nc2c1 > 76.9 µM
CCOc1ccc(CCNC(=O)C2CCN(C(=O)N(C)C)CC2)cc1OCC > 76.9 µM
O=C(Nc1ccccc1)C1=C(O)CC(c2ccco2)CC1=Nc1ccccc1 (stereo unspecified) > 76.9 µM
Cc1ccc(OCC2Cn3c(nc4c3c(=O)n(C)c(=O)n4C)O2)cc1 (stereo unspecified) > 76.9 µM
CC12CCC(C(=O)n3c1nc1ccccc13)C2(C)C (stereo unspecified) > 76.9 µM
O=C(COc1ncnc2ccccc12)NCc1ccc2c(c1)OCO2 > 76.9 µM
N#CC1=C2SCCN2C(=O)C(C#N)C12CCCCC2 (stereo unspecified) > 76.9 µM
CSc1nsc(SC)c1NC(=O)OCc1ccccc1 > 76.9 µM
CC(C)NC(=O)NC(=O)COc1ncnc2sccc12 > 76.9 µM
